In PubChem BioAssay AID2451 (National Center for Advancing Translational Sciences (NCATS), 2010):
The campaign covered roughly 290,000 compounds. About 2,100 (0.72%) were called active. Inconclusive results, whose numbers are uncertain, are shown with a selection of clear calls. The call rests on the fitted dose curve; in most records, active means well fitted inhibition curve with a large enough effect; inconclusive means small, poorly fitted or top-dose-only effect, or effect the other way; inactive means flat fitted curve, though single readings scatter. Potencies of inconclusive entries are doubtful fits and often do not repeat.

target: Fructose-bisphosphate aldolase (Giardia intestinalis (strain ATCC 50803 / WB clone C6)) (UniProt A8B2U2); assay: qHTS Assay for Inhibitors of Fructose-1,6-bisphosphate Aldolase from Giardia Lamblia; details: purified Giardia FBPA; activity, negative = inhibition: at 59.6 µM (top of the series) unless noted; further: nearly all actives have a fitted effect of over 55% in size
UniProt A8B2U2, sequence (A8B2U2 whole entry, looked up): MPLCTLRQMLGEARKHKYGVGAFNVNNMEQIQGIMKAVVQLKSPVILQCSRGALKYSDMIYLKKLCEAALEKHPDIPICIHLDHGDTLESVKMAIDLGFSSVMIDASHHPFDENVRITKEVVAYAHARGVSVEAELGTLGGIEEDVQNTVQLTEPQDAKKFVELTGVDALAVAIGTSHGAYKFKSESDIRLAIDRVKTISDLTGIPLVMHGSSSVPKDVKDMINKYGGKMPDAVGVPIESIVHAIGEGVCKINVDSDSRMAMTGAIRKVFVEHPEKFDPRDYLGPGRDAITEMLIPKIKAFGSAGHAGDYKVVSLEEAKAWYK
Procedure, shortened: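 Giardia FBPA (40 nM reagent) was preincubated 10 min at RT with compound (up to 57.5 uM final), then substrate plus GAPDH/TPI/NAD/arsenate coupling system with diaphorase/resazurin was added; resorufin fluorescence (525/598 nm) was read after 20 min.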
On the % scale 0 is the no-effect control and ±100 the full control effect; potency means the concentration at half of the fitted maximal effect; tags describe the fitted curve by direction and shape.

Row | Structure (SMILES) | activity, negative = inhibition | Potency
1 | Nc1cccc(-c2csc(-n3ncc(C(=O)O)c3C(F)(F)F)n2)c1 | inconclusive: 49.5% [activator] | 
2 | CN(C)c1cc(NC(=O)CNC(C)(C)CC(C)(C)C)c2ccccc2n1 |  | inconclusive: 19.9 µM [inhibitor, partial curve]
3 | COc1cc([N+](=O)[O-])ccc1N | inactive: 1.41% | 
4 | CC(C)CNC1=CC(=O)CC(c2ccco2)C1 (centres undefined) |  | inconclusive: 15.8 µM [inhibitor, partial curve]
5 | O=C(Nc1nnc(-c2ccccc2)o1)c1cc(-c2cccs2)nc2ccccc12 |  | inconclusive: 15.8 µM [activator, single point]
6 | CCCCn1c(SCC(=O)NCC2CCCO2)nc2ccc(N3CCOCC3)cc2c1=O (centres undefined) |  | inconclusive: 1.41 µM [inhibitor, full curve]
7 | Cc1ccc(SC2=C(Sc3ccc(C)cc3)C(=O)c3ccccc3C2=O)cc1 |  | inconclusive: 1.12 µM [inhibitor, full curve]
8 | CC(=O)Nc1ccc(N2C(=O)c3cccc4c(O)ccc(c34)C2=O)cc1 |  | inconclusive: 28.2 µM [inhibitor, partial curve]
9 | O=C(Cn1cnc2ccccc2c1=O)Nc1ccc2c(c1)OCO2 | inactive: -0.282% | 
10 | CCOC(=O)C1CCCN(CCC(=O)Nc2cccc(Cl)c2C)C1 (centres undefined) |  | inconclusive: 3.55 µM [inhibitor, full curve]
11 | C/C(=N\NC(=O)c1ccccc1)c1ccc2c(c1)OCO2 | inactive: -2.68% | 
12 | Cc1c(NC(=O)CN2CCN(C(c3ccccc3)c3ccccc3)CC2)c(=O)n(-c2ccccc2)n1C | inactive: 4.25% | 
13 | Cc1cc(NC(=O)c2cccs2)ncc1NC(=O)C(C)C | inactive: 8.66% | 
14 | C=CCNCc1cc(=O)n2c(-c3ccccc3)csc2n1 |  | inconclusive: 11.2 µM [inhibitor, partial curve]
15 | Cc1nn(CC(=O)NC2C(=O)N3C(C(=O)O)=C(CSc4nnnn4C)CSC23)cc1Br (centres undefined) |  | inconclusive: 17.7 µM [inhibitor, single point]
16 | COC(=O)c1c(NC(=O)c2ccco2)sc2c1CCN(C(C)C)C2 | inactive: -27.7% | 
17 | Cc1ccc(-c2noc(CCC(=O)NCC3CCN(Cc4cccc(C)c4)CC3)n2)cc1 | inactive: -15% | 
18 | COc1ccccc1NC(=O)NCc1ccc2c(c1)OCO2 | inactive: 0.36% | 
19 | Cc1ccn2c(NC3CCCC3)c(-c3ccccn3)nc2c1 |  | inconclusive: 31.5 µM [inhibitor, single point]
20 | Cc1ccc(OCCOCCN2CCN(C)CC2)c([N+](=O)[O-])c1 |  | inconclusive: 7.92 µM [inhibitor, partial curve]
21 | Cc1c(C)c2c(c(C)c1O)CC[C@@](C)(C(=O)O)O2 |  | inconclusive: 14.1 µM [inhibitor, partial curve]
22 | O=C(O)Cc1ccc(NC(=O)c2ccc(NC(=O)c3ccco3)cc2)cc1 | inactive: -0.826% | 
23 | OCC1(CCOc2ccccc2)CCN(Cc2ccc(OC(F)F)cc2)CC1 | inactive: 10.6% | 
24 | CCOc1ccccc1/C=C/C(=O)c1ccc(Cl)cc1 | inactive: 0.648% | 
25 | NC(=O)C1(NC(=O)[C@@H]2CC3(CC(c4cccc(NC(=O)[C@@H]5CCC(=O)N5)c4)=NO3)CN2C(=O)c2ccccc2)CC1 (some centres undefined) | inactive: 4.24% | 

Row | Structure (SMILES) | activity, negative = inhibition | Potency
26 | Cc1csc2c(=O)n3c(nc12)CCCCC3 | inactive: 10.7% | 
27 | Cc1nnc(NC(=O)CSc2nnc(CCc3nc4ccccc4[nH]3)n2C)s1 |  | inconclusive: 3.55 µM [inhibitor, full curve]
28 | O=c1cc[nH]c(=S)[nH]1 |  | active: 15.8 µM
29 | c1cncc(C(c2nnnn2C2CCCC2)N2CCCC2)c1 (centres undefined) | inactive: -17.4% | 
30 | COc1ccc(Cn2c(O)c(/C=N/NC(=O)c3ccccc3O)c(=O)[nH]c2=O)cc1 |  | inconclusive: 4.46 µM [activator, partial curve]
31 | Cn1c(O)c(C2=NNC(c3ccc(Cl)cc3)C2)c(=O)n(C)c1=O (centres undefined) |  | inconclusive: 7.06 µM [inhibitor, single point]
32 | COc1ccc(CCNC(=O)CSc2nnc3c(n2)[nH]c2ccc(F)cc23)cc1OC |  | inconclusive: 22.4 µM [inhibitor, single point]
33 | Cc1ccc(N=Nc2c(O)ccc3n[nH]nc23)cc1 |  | active: 15.8 µM
34 | CCOC(=O)C1=C(C)C/C(=N\NC(=O)c2ccccc2O)CC1 |  | inconclusive: 15.8 µM [inhibitor, single point]
35 | O=c1c2ccccc2sc2nc(C3CCCCC3)n(Cc3ccco3)c(=O)c12 | inactive: -11.7% | 
36 | CN(C)c1ccc(C=C2C(=O)NC(=S)NC2=O)cc1[N+](=O)[O-] |  | inconclusive: 28.1 µM [inhibitor, single point]
37 | CN1C(=O)CC(c2ccccc2)Nc2ccccc21 (centres undefined) | inactive: -6.9% | 
38 | CCOc1ccc(Cl)cc1/C=N/NC(N)=O |  | inconclusive: 9.98 µM [inhibitor, partial curve]
39 | COc1cc(OC)c(OC)cc1CN1CCN(Cc2ccc(C(F)(F)F)cc2)CC1 |  | inconclusive: 14.1 µM [inhibitor, partial curve]
40 | CN(c1ccccc1)S(=O)(=O)c1ccc(C(=O)Nc2nnc(C3=COCCO3)o2)cc1 |  | active: 11.2 µM
41 | Nc1c(-c2cccc(Cl)c2)cnn1-c1cccc(C(F)(F)F)c1 | inactive: -6.12% | 
42 | O=C1CSC(=S)N1 |  | active: 7.94 µM
43 | CCCCn1c(SCC(=O)NCc2ccccc2)nc2ccc(N3CCOCC3)cc2c1=O |  | inconclusive: 1.99 µM [inhibitor, full curve]
44 | CCc1ccc(NS(=O)(=O)c2ccc3[nH]cc(C(=O)N4CCCCC4)c(=O)c3c2)cc1 |  | inconclusive: 19.9 µM [activator, single point]
45 | N/C(Cn1cncn1)=N\OC(=O)c1ccc(Cl)cc1Cl | inactive: 3.72% | 
46 | CC(=O)c1c(C)[nH]c(C(=O)CSc2nc3ccc(C)cc3[nH]2)c1C |  | inconclusive: 31.6 µM [inhibitor, single point]
47 | Clc1ccc2[nH]c3c(c2c1)CNCC3 | inactive: -11.5% | 
48 | COc1ccc(C/C(O)=C(\C#N)c2nc3ccccc3s2)cc1 |  | inconclusive: 17.7 µM [activator, single point]
49 | CC1CCCN(C2=C(NS(=O)(=O)c3ccc(Br)cc3)C(=O)c3ccccc3C2=O)C1 (centres undefined) |  | inconclusive: 14.1 µM [inhibitor, partial curve]
50 | COc1ccc(OC)c(S(=O)(=O)Nc2ccc(Oc3ccccc3)cc2)c1 | inactive: 0.947% | 

Row | Structure (SMILES) | activity, negative = inhibition | Potency
51 | Cc1ccc(C2C3=C(CCCC3=O)Nc3[nH]c(=S)[nH]c(=O)c32)cc1 (centres undefined) |  | inconclusive: 3.54 µM [inhibitor, full curve]
52 | Cc1cc(Br)ccc1OCCN1CCCC1 |  | inconclusive: 17.8 µM [inhibitor, partial curve]
53 | CCCn1c(-c2ccncc2)n[nH]c1=S |  | inconclusive: 22.3 µM [inhibitor, partial curve]
54 | CC(C)NCC#CCOc1ccc(Cl)cc1 |  | inconclusive: 17.7 µM [inhibitor, partial curve]
55 | CC1CCCC(NCC(O)COC(c2ccc(F)cc2)c2ccc(F)cc2)C1C (centres undefined) |  | inconclusive: 19.9 µM [inhibitor, partial curve]
56 | COc1ccc(-c2cc(-c3ccc(F)cc3)nc(N3CCN(C)CC3)n2)cc1 |  | inconclusive: 11.2 µM [inhibitor, partial curve]
57 | CCOC(=O)COn1c(=O)c(-c2ccc(OC)c(OC)c2)[n+]([O-])c2ccccc21 |  | inconclusive: 15.8 µM [inhibitor, partial curve]
58 | O=C(O)C1Cc2[nH]cnc2C(c2ccccc2O)N1 (centres undefined) |  | inconclusive: 19.9 µM [inhibitor, partial curve]
59 | Cc1cc(C)n2ncc(/C(N)=N/OC(=O)Nc3ccccc3)c2n1 |  | inconclusive: 5 µM [inhibitor, single point]
60 | C=CCNc1nc2ccccc2nc1NS(=O)(=O)c1cccc(C)c1 |  | inconclusive: 28.2 µM [inhibitor, single point]
61 | COc1ccc(N(C(=O)c2snc(C(N)=O)c2N)C(C(=O)NCc2ccc(F)cc2)c2ccc(O)cc2)cc1 (centres undefined) | inactive: 2.55% | 
62 | O=C(O)c1cccc(Nc2nc(C(F)(F)F)nc3ccccc23)c1 |  | inconclusive: 15.8 µM [activator, partial curve]
63 | CNC(=S)NNC(=O)c1oc2nc(-c3ccccc3)cc(-c3ccco3)c2c1N |  | inconclusive: 2.23 µM [inhibitor, full curve]
64 | CCc1ccc(S(=O)(=O)Nc2ccccn2)cc1 |  | inconclusive: 20 µM [inhibitor, partial curve]
65 | CCCCCCCn1c(NC(=O)CC)nc2ccccc21 | inactive: -16.5% | 
66 | Cc1cc2c(NC(=O)CC(C)(C)CC(=O)O)cccc2nn1 |  | inconclusive: 5 µM [inhibitor, full curve]
67 | C=CCN(CC=C)S(=O)(=O)c1ccc(C(=O)Nc2nnc(COC)o2)cc1 |  | inconclusive: 22.3 µM [inhibitor, single point]
68 | CCOC(=O)N1CCN(C(=O)CNC2CCCCCCC2)CC1 |  | inconclusive: 19.9 µM [inhibitor, partial curve]
69 | CCN1C(=O)c2ccc(C(=O)Nc3ccc(O)cc3C)cc2C1=O | inactive: 3.88% | 
70 | COC(=O)c1[nH]c2ccccc2c1NC(=O)CN1CCCc2ccccc21 |  | inconclusive: 17.7 µM [inhibitor, single point]
71 | O=C(O)c1ccc(S(=O)(=O)c2ccc3c(c2)C(=O)N(NC(=O)c2cccnc2)C3=O)cc1 |  | inconclusive: 17.7 µM [activator, single point]
72 | COCCn1nnnc1C(c1ccc(OC)cc1)N1CCN(C(=O)c2ccco2)CC1 (centres undefined) |  | inconclusive: 35.5 µM [inhibitor, single point]
73 | COc1ccc(CCNCC2C(Oc3ccc(Cl)cc3)C(=O)N2c2ccccc2C)cc1OC (centres undefined) | inactive: -12.6% | 
74 | COc1cc(C)ccc1OCCOCCOc1cccc2ccc(C)nc12 |  | inconclusive: 15.8 µM [inhibitor, partial curve]
